A lower IC50 marks a more sensitive line; a limit (>, <) means that the fit lies beyond the doses tested. AUC is the area under the same curve over the 256-fold range up to the top dose, as a fraction; it is 1 without any effect and falls as sensitivity rises. For part of these data: Any top dose called inferred was calculated from the reported fits. For part of these data: An entry number marks a drug with two screens in the source, which often give different values.
Assays:
Test in all cases: Viability of human cancer cell lines after 72 h of drug (GDSC screen)
ZM-447439 = compound: COc1cc2c(Nc3ccc(NC(=O)c4ccccc4)cc3)ncnc2cc1OCCCN1CCOCC1 [ZM-447439]; conditions: top dose inferred
Description: (§1)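 Human cancer cell lines in 384-well plates, medium with 10% serum, drug for 72 h over a 256-fold dose range (nine 2-fold or five 4-fold steps up to the top dose). Adherent lines were fixed and stained with the nucleic acid dye Syto60, suspension lines read with resazurin; signal relative to control wells, capped at 0 and 100%. One two-parameter sigmoid per drug and line, fitted in a mixed model over all curves with the slope shared within a line.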

AS601245 = compound: N#CC(c1ccnc(NCCc2cccnc2)n1)c1nc2ccccc2s1 [AS601245]; conditions: top dose 8 µM; top dose inferred
Description: as §1

EX-527 = compound: NC(=O)C1CCCc2c1[nH]c1ccc(Cl)cc21 [EX-527]; conditions: top dose 20 µM
Description: as §1

AZD6244 = compound: Cn1cnc2c(F)c(Nc3ccc(Br)cc3Cl)c(C(=O)NOCCO)cc21 [AZD6244]; conditions: top dose 4 µM; screen: GDSC drug entry 1498; top dose inferred
Description: as §1

YM201636 = compound: Nc1ccc(C(=O)Nc2cccc(-c3nc(N4CCOCC4)c4oc5ncccc5c4n3)c2)cn1 [YM201636]; conditions: top dose 5.12 µM; top dose inferred
Description: as §1

Row | Cell Line | AUC (ZM-447439) | IC50 (ZM-447439) | AUC (AS601245) | IC50 (AS601245) | AUC (EX-527) | IC50 (EX-527) | AUC (AZD6244) | IC50 (AZD6244) | AUC (YM201636) | IC50 (YM201636)
1 | THP-1 (acute myeloid leukaemia, suspension, top dose 4 µM) | 0.991 | > 4 µM |  |  |  |  |  |  |  | 
2 | TOV-21G (ovary, adherent) |  |  | 0.947 | > 8 µM | 0.974 | > 20 µM | 0.784 | 1.86 µM | 0.96 | > 5.12 µM
3 | TOV-112D (ovary, adherent) |  |  | 0.747 | 2.58 µM | 0.973 | > 20 µM | 0.894 | > 4 µM | 0.839 | 3.54 µM
4 | TT2609-C02 (thyroid, adherent) |  |  | 0.763 | 3.07 µM | 0.984 | > 20 µM | 0.896 | > 4 µM | 0.86 | 4.77 µM
5 | TT (thyroid, adherent) |  |  | 0.93 | > 8 µM | 0.978 | > 20 µM | 0.967 | > 4 µM | 0.96 | > 5.12 µM
6 | TT (thyroid, adherent, top dose 2 µM) | 0.927 | > 2 µM |  |  |  |  |  |  |  | 
7 | TYK-nu (ovary, adherent) |  |  | 0.662 | 1.46 µM | 0.966 | > 20 µM | 0.743 | 1.31 µM | 0.881 | > 5.12 µM
8 | U031 (kidney, adherent) |  |  | 0.862 | 7.3 µM | 0.985 | > 20 µM | 0.785 | 1.77 µM | 0.884 | > 5.12 µM
9 | U031 (kidney, adherent, top dose 2 µM) | 0.941 | > 2 µM |  |  |  |  |  |  |  | 
10 | U251 (glioma, adherent) |  |  | 0.91 | > 8 µM | 0.987 | > 20 µM | 0.799 | 1.81 µM | 0.927 | > 5.12 µM
11 | U-118-MG (glioma, adherent) |  |  | 0.956 | > 8 µM | 0.984 | > 20 µM | 0.868 | > 4 µM | 0.915 | > 5.12 µM
12 | UACC-62 (melanoma, adherent) |  |  | 0.987 | > 8 µM | 0.984 | > 20 µM | 0.359 | 0.102 µM | 0.983 | > 5.12 µM
13 | UACC-893 (breast, adherent) |  |  | 0.948 | > 8 µM | 0.983 | > 20 µM | 0.933 | > 4 µM | 0.888 | > 5.12 µM
14 | UACC-893 (breast, adherent, top dose 2 µM) | 0.967 | > 2 µM |  |  |  |  |  |  |  | 
15 | UM-UC-3 (bladder, adherent) |  |  | 0.872 | 6.84 µM | 0.98 | > 20 µM | 0.9 | > 4 µM | 0.779 | 1.96 µM
16 | UMC-11 (lung carcinoid, adherent) |  |  | 0.965 | > 8 µM | 0.98 | > 20 µM | 0.985 | > 4 µM | 0.88 | 4.33 µM
17 | VM-CUB-1 (bladder, adherent) |  |  | 0.978 | > 8 µM | 0.981 | > 20 µM | 0.923 | > 4 µM | 0.989 | > 5.12 µM
18 | VMRC-MELG (melanoma, adherent) |  |  | 0.888 | > 8 µM | 0.974 | > 20 µM | 0.943 | > 4 µM | 0.979 | > 5.12 µM
19 | VMRC-RCZ (kidney, adherent) |  |  | 0.874 | > 8 µM | 0.976 | > 20 µM | 0.901 | > 4 µM | 0.93 | > 5.12 µM
20 | WM35 (melanoma, adherent) |  |  | 0.827 | 4.94 µM | 0.977 | > 20 µM | 0.326 | 0.0813 µM | 0.814 | 2.82 µM
21 | WM278 (melanoma, adherent) |  |  | 0.865 | > 8 µM | 0.975 | > 20 µM | 0.548 | 0.344 µM | 0.75 | 1.86 µM
22 | WM793B (melanoma, adherent) |  |  | 0.759 | 3.08 µM | 0.972 | > 20 µM | 0.803 | 2.25 µM | 0.905 | > 5.12 µM
23 | WM1552C (melanoma, adherent) |  |  | 0.816 | 4.48 µM | 0.981 | > 20 µM | 0.771 | 1.54 µM | 0.986 | > 5.12 µM
24 | WM-115 (melanoma, adherent) |  |  | 0.907 | > 8 µM | 0.972 | > 20 µM | 0.706 | 1.1 µM | 0.615 | 0.713 µM
25 | YAPC (pancreas, adherent) |  |  | 0.985 | > 8 µM | 0.985 | > 20 µM | 0.886 | > 4 µM | 0.968 | > 5.12 µM
26 | YKG-1 (glioma, adherent) |  |  | 0.729 | 2.26 µM | 0.976 | > 20 µM | 0.902 | > 4 µM | 0.965 | > 5.12 µM
27 | huH-1 (liver, adherent) |  |  | 0.98 | > 8 µM | 0.978 | > 20 µM | 0.923 | > 4 µM | 0.984 | > 5.12 µM

Reference: the supplement of paper PMC4967469
